Measurements: the supplement of paper PMC3334620
The full ranking holds about 33,000 sequences; the median of “E-score (-0.5 to 0.5)” is about -0.035, and the highest 2% start at about 0.34. Some of the results follow.

molecular target: T1, Mot3 (UniProt P54785); experiment: PBM E-score (8-mer binding enrichment) (E-score (-0.5 to 0.5)); higher = stronger / more preferred TF binding; most listed sequences are background and not binding sites; details: protein concentration: 200 nM; construct: GST-full length
T1 sequence: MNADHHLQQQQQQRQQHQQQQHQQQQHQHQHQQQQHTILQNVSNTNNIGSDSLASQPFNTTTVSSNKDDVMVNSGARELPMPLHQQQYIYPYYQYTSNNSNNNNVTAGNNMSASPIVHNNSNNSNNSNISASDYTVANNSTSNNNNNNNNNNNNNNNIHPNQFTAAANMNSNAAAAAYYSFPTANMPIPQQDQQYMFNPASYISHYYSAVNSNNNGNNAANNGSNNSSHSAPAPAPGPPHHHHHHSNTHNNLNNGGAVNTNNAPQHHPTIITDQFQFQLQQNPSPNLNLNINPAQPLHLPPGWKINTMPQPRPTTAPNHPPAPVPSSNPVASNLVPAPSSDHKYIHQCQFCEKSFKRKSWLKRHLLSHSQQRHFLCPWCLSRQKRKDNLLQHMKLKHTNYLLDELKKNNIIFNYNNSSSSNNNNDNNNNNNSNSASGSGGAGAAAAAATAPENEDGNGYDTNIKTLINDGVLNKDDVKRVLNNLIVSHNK
Outline: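 Yeast transcription factors carrying a GST tag, as full-length proteins or DNA-binding domains, were produced by PURExpress in vitro transcription/translation. About 100-200 nM protein was applied to universal all-10-mer Agilent arrays, double-stranded by primer extension on fresh or once-stripped slides. Bound protein was detected with fluorescent anti-GST, and scans were normalised with masliner. The Universal PBM Analysis Suite gave each ungapped eight-base word, pooled with its reverse complement, an E-score, a modified Wilcoxon-Mann-Whitney statistic.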

Sequence	PBM E-score
GGAACTAC	0.12
CGGGAAGC	-0.147
GAAAAACA	0.136
CACCCGCC	-0.0513
CGTCCAAC	0.0976
ACCGCGTG	0.0158
CTAGGCTC	0.043
ATATCAAC	-0.0202
ATATATAT	0.229
GCTCACAA	0.00514
ACCGGGTA	0.0313
CAGCATGA	-0.0674
AAATATCT	-0.0704
AAGACACA	0.0801
GTCCCGAA	-0.0546
AGAACGAG	-0.00842
TCCAGGCA	0.463
AACGCTAG	0.0348
CCATCATC	-0.226
ACGTCTCT	0.0141
CGATGTCA	0.0849
TAGCCCTA	-0.0815
ACTCGGTA	-0.027
AAGATCAG	-0.167
CGCGCAGC	-0.144

Sequence	PBM E-score
CTCTGATA	-0.208
CCTATTCG	-0.08
ACCGTCTA	-0.007
AACACGCT	0.335
AATCATAC	-0.0233
GAGCACGC	-0.0754
AAAGTCGA	-0.122
ACTCTAGC	-0.19
CTTTTCTC	-0.00155
CTGTGTCC	0.0926
CGACTATC	-0.188
ATAGAAAT	-0.0355
ATCCCCAA	0.065
TAATGAGA	0.0652
CCTGGTCC	-0.276
CAAGTCTA	0.053
TAGGGCGA	-0.123
CATACTTA	0.193
GGCTCTCA	-0.189
CCCTCCGA	-0.214
AATCTGAC	0.0237
AGTGATTA	0.0245
AAAACGCT	-0.027
AGGAATTC	-0.0434
ACCGTCCA	-0.304

Sequence	PBM E-score
CAACTATA	0.00989
TGAATTAA	0.181
CCTTCACC	0.168
AGATTGGG	-0.196
ACGGGGTG	-0.179
AAAATTTC	-0.00945
ACGTCAAT	-0.0649
CACCGCGA	-0.105
ATGCAGCA	-0.107
CAACGGTG	-0.174
TCTTATCA	0.259
CGATTTAC	0.0537
AATGTTTA	0.209
ATTACCCA	0.117
ACTAGGTC	-0.144
GATCGCCC	-0.0373
ACAAGCTA	0.187
CGACGGCC	-0.134
ACGAGCCG	-0.0112
CCACCATC	-0.265
CGCCCGAA	-0.164
AAACTCAG	0.0968
ATTCCATA	-0.0922
AAAAAAAG	0.0296
AAAACACA	0.272

Sequence	PBM E-score
CCTCGGCG	-0.0846
AACGGTCG	-0.0651
AAGTCGAC	0.152
AGGAGCCC	0.00792
TGGGCTAA	-0.197
AAATGCTC	-0.0582
CTTCTTAA	0.249
AGCAATTC	-0.0575
AGGGCGCG	0.0819
GATGAAAA	0.113
CTTCAACA	0.268
CCTCAGTC	-0.263
ACGTTGTC	0.0318
CGAGACAG	-0.00715
ATGAGTAG	0.00079
AAGCACGC	0.216
CATGAGCG	-0.167
GCCCTAGA	-0.256
GACCTATC	-0.0804
AATAAACT	-0.0556
GAAAGTTA	0.0912
AGTCGCAG	-0.268
TCCTACAA	0.279
GCCCCGTA	-0.246
CAACCCAA	0.0828

Sequence	PBM E-score
GGCCACTA	-0.141
TGCCCACA	0.175
GGTTGGAA	-0.221
ACCAGGCT	-0.06
ATGCACGC	0.0647
CGTACAAC	0.163
ATGGTCCG	-0.213
CCCCCCGA	-0.442
GTCCTGCA	-0.0442
ACATTTCG	0.0564
ATGCGGGC	-0.0621
CGGTGTTA	0.075
ACATCAGT	0.0368
CAAGAAAC	0.0824
ACCCTAGT	-0.0513
CGAAACAA	0.0406
ACCAAATG	-0.15
GTCATGAC	-0.0798
GCAATCCA	0.0284
GAAACTCA	-0.0953
AAGAGCGA	-0.284
CGTGGCCC	-0.283
AATCTCGA	0.018
CGGATAAG	-0.358
ACCATATA	0.124

Sequence	PBM E-score
GGGGTGCA	-0.134
CGACTGCG	-0.0889
ACTCGGAA	-0.192
CCCCAATC	-0.174
TATCGGCA	-0.0281
ACAACCGC	-0.0456
TTCAGCAA	0.0416
AATTTGAT	-0.133
CGTCGCTC	-0.219
ATTTCGAC	0.00058
GGGCCCAC	-0.255
ACCGCTCA	-0.122
GCAACAGC	0.0716
CGGGAGTA	-0.221
ATCAAAGC	-0.104
TCGGCCGA	-0.26
TAGCTACA	0.0558
TAGCGAAA	-0.0801
ACAGCTGT	-0.0347
CCCCACAC	-0.354
CCCCTTTC	-0.0457
ACATAGAT	0.21
CGCGGCGC	-0.193
ATCGCTGA	-0.182
CAAGAGAC	-0.0444

Sequence	PBM E-score
GGAGAAAC	-0.149
TCACCGGA	-0.13
ATGTGATG	0.0138
AAGGAGGG	-0.113
CTACCTCC	-0.00212
ACACTGCG	-0.13
CAAACGGA	-0.171
AAAAAGGC	0.29
ACTGCCCT	-0.227
ACCCATAC	-0.088
AAAGTGCA	-0.0801
AACTGAGT	0.00615
CCTCCTCA	-0.171
AGCCCAGG	-0.0618
TCCAGACA	-0.191
GACTTGTA	0.177
GTAACTCA	-0.145
GAGACGCC	-0.289
AATGGTAT	-0.0595
AGACACGC	0.0942
ACTTAGAA	-0.0888
GAGTCCCC	-0.341
